# Results published in publication PMC4336329 (PLoS ONE, 2015).
# Hit rate of the full screen: of about 310,000 compounds, about 2,200 (0.71%) showed an effect of 50% or more. The effect is printed as a negative number. Some of the results follow.
# Molecular target: human ether-à-go-go-related gene (hERG) potassium channel (human, UniProt Q12809)
# Assay: primary screen, population patch clamp on CHO cells stably expressing hERG
# Chain of human ether-à-go-go-related gene (hERG) potassium channel (Q12809 whole entry, looked up): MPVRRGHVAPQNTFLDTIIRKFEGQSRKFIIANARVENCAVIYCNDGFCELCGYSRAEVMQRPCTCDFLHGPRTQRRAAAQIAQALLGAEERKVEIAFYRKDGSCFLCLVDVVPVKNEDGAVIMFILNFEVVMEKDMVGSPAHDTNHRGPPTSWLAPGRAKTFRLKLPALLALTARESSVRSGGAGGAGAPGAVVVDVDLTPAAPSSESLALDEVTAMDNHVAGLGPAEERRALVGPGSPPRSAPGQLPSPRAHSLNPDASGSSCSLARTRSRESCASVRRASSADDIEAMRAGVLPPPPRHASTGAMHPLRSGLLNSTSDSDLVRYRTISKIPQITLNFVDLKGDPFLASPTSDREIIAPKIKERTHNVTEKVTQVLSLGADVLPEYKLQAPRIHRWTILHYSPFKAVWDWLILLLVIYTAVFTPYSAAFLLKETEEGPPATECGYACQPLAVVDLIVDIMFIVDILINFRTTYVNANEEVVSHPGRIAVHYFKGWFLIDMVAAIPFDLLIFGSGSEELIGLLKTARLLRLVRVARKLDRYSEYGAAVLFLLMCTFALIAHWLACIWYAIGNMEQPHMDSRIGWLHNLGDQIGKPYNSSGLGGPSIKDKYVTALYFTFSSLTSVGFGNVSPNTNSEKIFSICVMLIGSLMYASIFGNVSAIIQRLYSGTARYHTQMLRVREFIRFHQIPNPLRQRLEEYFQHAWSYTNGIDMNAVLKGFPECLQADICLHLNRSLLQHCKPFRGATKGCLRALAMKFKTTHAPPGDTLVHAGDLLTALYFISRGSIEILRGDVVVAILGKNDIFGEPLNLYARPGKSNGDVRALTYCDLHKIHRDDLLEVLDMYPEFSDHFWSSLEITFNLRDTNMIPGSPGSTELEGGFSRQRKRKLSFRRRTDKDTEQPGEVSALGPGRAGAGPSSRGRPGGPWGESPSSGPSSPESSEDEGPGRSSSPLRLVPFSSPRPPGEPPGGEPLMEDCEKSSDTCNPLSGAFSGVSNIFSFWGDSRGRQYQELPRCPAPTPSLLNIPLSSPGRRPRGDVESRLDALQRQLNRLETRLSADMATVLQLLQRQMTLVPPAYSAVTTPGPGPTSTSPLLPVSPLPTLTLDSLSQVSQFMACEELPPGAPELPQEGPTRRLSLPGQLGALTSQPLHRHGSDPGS
row,SMILES,"hERG current change (%, negative = inhibition) at 1uM"
1,Cn1c(SCCOc2ccccc2Cl)nnc1-c1cccs1,5.91%
2,COc1cccc2cc(S(=O)(=O)c3ccc(C)cc3)/c(=N/NS(=O)(=O)c3ccc(C)cc3)oc12,1.59%
3,C[C@H]1CCC[C@H](O)CCCCCc2cc(O)cc(O)c2C(=O)O1,-46.9%
4,Cc1ccc(-c2nnc(SCC(=O)NCCN3C(=O)CSC3=O)n2C)cc1,7.13%
5,Cn1ncc(Cl)c1C(=O)NCc1cc(C(C)(C)C)n[nH]1,15%
6,Cc1ccccc1C(=O)Nc1ccnn1C1CCN(Cc2ccc(CO)o2)CC1,1.49%
7,O=C(CCc1ccc(S(=O)(=O)NCCc2ccccc2)cc1)NCc1ccc2c(c1)OCO2,11.5%
8,Cc1ccc(Nc2ccc(C(=O)O)cc2N)cc1,8.99%
9,CCOc1ccccc1C(=O)NC1CC2CCCC(C1)N2Cc1nnnn1Cc1ccco1 (centres unmarked),13.8%
10,CCc1ccccc1NC(=O)CN(C)C(=O)Cn1cnc2ccc(Cl)cc2c1=O,3.37%
11,COc1cccc(C(=O)NNS(=O)(=O)c2ccc(C)cc2)c1,13%
12,CC(=O)c1cccc(N(C(=O)c2ccco2)C(C(=O)NC2CCCC2)c2ccccc2F)c1 (centres unmarked),4.87%
13,COc1cccc(Nc2nc3ccccc3c(=O)[nH]2)c1,14.6%
14,CCOC(=O)CN1CCc2c(C)nc3c(-c4ccc(OC)c(OC)c4)cnn3c21,-6.54%
15,O=C(NC1CCCC1)C(c1ccc(Cl)cc1)N1CCOCC1 (centres unmarked),-0.429%
16,COc1ccc(-n2ccc(=O)c(C(=O)O)n2)c(OC)c1,7.94%
17,CCC1CCC(c2nnc(-c3ccc([N+](=O)[O-])cc3)o2)CC1 (centres unmarked),4.91%
18,CC1CC(C)CN(CC(O)COc2ccc3c(c2)CCC3)C1.Cl (centres unmarked),-14.7%
19,COC(=O)C(COC(=O)c1c(F)cccc1F)NC(=O)c1c(F)cccc1F (centres unmarked),16.2%
20,O=S1(=O)N=C(N=Nc2c(O)[nH]c3ccccc23)c2ccccc21,-1.95%
21,Cc1c(NC(=S)NC(=O)CC(C)C)c(=O)n(-c2ccccc2)n1C,7.84%
22,Cc1c(N=Cc2nc3ccccc3[nH]2)c(=O)n(-c2ccccc2)n1C,7.88%
23,COc1ccccc1OCCC(=O)O,14.1%

row,SMILES,"hERG current change (%, negative = inhibition) at 1uM"
1,NC(=O)CC(NC(=O)Cc1cccc2ccccc12)c1ccc(N2CCN(c3ccccc3)CC2)c([N+](=O)[O-])c1 (centres unmarked),16.6%
2,COc1ccc2cc([C@@H](C)C(=O)[O-])ccc2c1.[Na+],2.48%
3,O=C(CN1CCN(c2ccc([N+](=O)[O-])cc2)CC1)Nc1ccccn1,-75.8%
4,CCc1cccc(C)c1NC(=O)C1CCCN1C(=O)NCc1ccccc1 (centres unmarked),15.5%
5,NC(=S)N/N=C\c1c(OCc2ccccc2Cl)ccc2ccccc12,10.7%
6,CSc1nsc(SCC(=O)NC2CCCCC2)n1,13.1%
7,COCCNC(=O)/C(C#N)=C1\N=C(N)c2ccccc21,9.47%
8,COc1ccccc1C1CCN(Cc2ccccc2Cl)CC1,8.08%
9,CN1C(C(=O)NCc2ccco2)CC2Cn3c(nc4cc5ccccc5cc43)C21 (centres unmarked),-0.0028%
10,Cc1ccc(NC(=O)c2ccccc2OCC(=O)c2ccccc2)cc1,-1.66%
11,O=C(NCc1ccco1)c1cccc(Nc2nc3ccc(Br)cc3[nH]2)c1,16.6%
12,C=CCn1c(-c2ccc(=O)n(Cc3ccccc3)c2)n[nH]c1=S,3.37%
13,Cc1oc(-c2ccccc2F)nc1CS(=O)CC(=O)NC1CCCC1 (centres unmarked),2.31%
14,COc1ccc2c(CSc3nc4nc(C)cc(C)n4n3)cc(=O)oc2c1,8.18%
15,CCOc1ccccc1NC(=O)NNC(=O)c1ccc2ccccc2c1,11.6%
16,COc1ccc(C(C)NC(=O)Cc2cccs2)cc1 (centres unmarked),12.4%
17,Cl.NCCc1nnc(SCc2c(F)cccc2Cl)o1,12.5%
18,COC(=O)Cc1ccc(NC(=S)Nc2ccccn2)cc1,7.65%
19,CC1(C(=O)NNC(=O)c2ccc(=O)oc2)CC1Br (centres unmarked),16.8%
20,Cc1ccc(/C=C/C(=O)Nc2nc3ccccc3[nH]2)cc1,-4.16%
21,CCCCCN(C(=O)NC(=O)Nc1ccccc1OC)S(C)(=O)=O,12.4%
22,COc1ccc(-n2cnc3ccccc32)cc1,8.56%
23,Cc1ccc(C(=O)OCC(=O)NCCc2ccccc2)cc1S(=O)(=O)N1CCOCC1,9.31%

row,SMILES,"hERG current change (%, negative = inhibition) at 1uM"
1,Cc1cc(C)cc(NC(=O)c2sc3nc4n(c(=O)c3c2C)CCC4)c1,7.14%
2,Cc1cc(C)c2c(CC(=O)O)coc2c1,7.05%
3,CS(=O)(=O)N1CCC(C(=O)NCc2ccc(Cl)cc2)CC1,8%
4,COc1cccc(CN2CCN(Cc3cccc(Br)c3)CC2)c1OC.O=C(O)C(=O)O,2.52%
5,COc1cc(S(=O)(=O)N2CCN(C)CC2)c(OC)cc1Cl,13%
6,C[C@@]12C(=O)Nc3ccc(Cl)cc3C(=O)N1[C@H]1c3ccccc3OC[C@@H]1[C@@H]2c1ccccc1,17.5%
7,COc1cc(NC(=O)CN2CCN(C(=O)C3CCCO3)CC2)c(OC)cc1Cl (centres unmarked),10.7%
8,COc1ccc(CN(C)CC(O)COc2ccc(C(=O)c3ccccc3)cc2)c(OC)c1OC (centres unmarked),-37.5%
9,CCCC1=C(C(=O)OCC)C(c2cccs2)C(C#N)=C(N)O1 (centres unmarked),0.822%
10,CCN1CCN(c2ccc(S(=O)(=O)N3CCCCC3)cc2NC(=O)Cc2c(F)cccc2Cl)CC1,9.43%
11,COc1ccc(NC(=O)CNS(=O)(=O)c2ccccc2)cc1Cl,11.3%
12,CCC1(C)N([O-])C(C)=C(c2ccccc2)[N+]1=O (centres unmarked),8.03%
13,COc1ccccc1CNC(=O)COC(=O)C1CCN(S(=O)(=O)c2ccc(C)c(C)c2)CC1,9.15%
14,CNC(=S)N1CCN(c2ccc(OC)cc2)CC1,12.8%
15,Cc1cc(CN(C)Cc2c(C(=O)N3CCCCCCC3)nc3ccc(Cl)cn23)n[nH]1,3.99%
16,Cc1cc(C)c2c(=O)[nH]c(SCC(=O)Nc3ccc(N(C)C)cc3)nc2n1,10.1%
17,Cc1noc(NS(=O)(=O)c2ccc(NC(=O)C(F)(F)F)cc2)c1C,18.7%
18,CCCn1c(SCC(=O)Nc2ccc3c(c2)CCC3)n[nH]c1=O,-2.48%
19,CC(=O)NC(CC(=O)N1CCCC1)c1ccccc1 (centres unmarked),12.4%
20,O=C(Nc1nnc(C2CCCCC2)s1)c1ccco1,3.58%
21,CCOC(=O)c1cnc(-c2ccccc2)nc1N1CCOCC1,3.45%
22,CCCn1c(C(C)Nc2nc(-c3ccc(Cl)c([N+](=O)[O-])c3)cs2)nc2cc(Cl)c(N3CCCCC3)cc21 (centres unmarked),19.3%
23,Cc1cc(-c2cc(C(=O)Nc3ccccc3)on2)nc(NCC2CC2)n1,14.7%

row,SMILES,"hERG current change (%, negative = inhibition) at 1uM"
1,Cc1nc(Nc2ccccc2)sc1C(=O)c1ccccc1,12%
2,O=C(CN1CCN(S(=O)(=O)c2ccc3ccccc3c2)CC1)N1CCc2ccccc2C1,10.6%
3,c1ccc(-n2cnnc2SCc2cn3ccsc3n2)cc1,13%
4,CC(CN1CCCCCC1)C(=O)NN (centres unmarked),14.9%
5,Cc1ccc(C)c(OCC(=O)Nc2ccc(S(=O)(=O)Nc3ccccn3)cc2)c1C,9.08%
6,CCCCNC(=O)COC(=O)C1CCN(S(=O)(=O)c2ccc3c(c2)OCCO3)CC1,13.1%
7,COc1cccc(NC(=O)CN(C)CC(=O)Nc2ccccc2-c2ccccc2)c1,9.72%
8,COc1ccc(-n2nc([N+](=O)[O-])c(=NCCCN3CCCC3=O)n2O)cc1,6.18%
9,O=C(Nc1ccccc1)N1CCCN(c2nccc(C(F)(F)F)n2)CC1,2.75%
10,CC(=O)NC1=NC(=O)/C(=C/c2cc(C)n(-c3ccc(NC(C)=O)cc3)c2C)S1,9.56%
11,CC(=O)NC1(c2cccc(F)c2)CCN(C(=O)Nc2ccc(C#N)cc2)CC1,-0.772%
12,CCN1C(=O)/C(=C\c2ccncc2)SC1=S,8.98%
13,CC(C)(C)n1nc2c(c1NC(=O)c1ccccc1)CS(=O)(=O)C2,4.43%
14,CC(C)(C)C(=O)Nc1ccc(C(=O)Nc2cc(NC(=O)c3ccc(NC(=O)C(C)(C)C)cc3)cc(C(=O)O)c2)cc1,15.1%
15,O=C(CSc1nnc(CNc2ccc(F)cc2)o1)OC1CCCCC1,10.7%
16,O=C(CSc1nnc2c(n1)[nH]c1ccccc12)OCc1ccccc1,13.2%
17,CCCNC(=O)CSc1nnc(-c2ccccc2Br)n1-c1cccc(C(F)(F)F)c1,-0.613%
18,CN(C)CCCN(C(=O)c1ccc(S(=O)(=O)N2CCCc3ccccc32)cc1)c1nc2ccc(F)cc2s1.Cl,5.2%
19,COC(=O)c1ccc(S(=O)(=O)N2CCc3ccccc3C2)cc1,24.5%
20,COc1ccc(S(=O)(=O)N2CCCCC2)cc1C(=O)N1CCCCCC1,11.4%
